In all, about 33,000 sequences were measured (“E-score (-0.5 to 0.5)”: median about -0.016, highest 2% from about 0.32 on). Some of the results follow.
Each sequence was assayed against T1, Stp1 (UniProt B3LFK1) (assay: PBM E-score (8-mer binding enrichment) (E-score (-0.5 to 0.5)); higher = stronger / more preferred TF binding; most listed sequences are background and not binding sites). Details: protein concentration: 200 nM; construct: GST-full length.
T1 sequence: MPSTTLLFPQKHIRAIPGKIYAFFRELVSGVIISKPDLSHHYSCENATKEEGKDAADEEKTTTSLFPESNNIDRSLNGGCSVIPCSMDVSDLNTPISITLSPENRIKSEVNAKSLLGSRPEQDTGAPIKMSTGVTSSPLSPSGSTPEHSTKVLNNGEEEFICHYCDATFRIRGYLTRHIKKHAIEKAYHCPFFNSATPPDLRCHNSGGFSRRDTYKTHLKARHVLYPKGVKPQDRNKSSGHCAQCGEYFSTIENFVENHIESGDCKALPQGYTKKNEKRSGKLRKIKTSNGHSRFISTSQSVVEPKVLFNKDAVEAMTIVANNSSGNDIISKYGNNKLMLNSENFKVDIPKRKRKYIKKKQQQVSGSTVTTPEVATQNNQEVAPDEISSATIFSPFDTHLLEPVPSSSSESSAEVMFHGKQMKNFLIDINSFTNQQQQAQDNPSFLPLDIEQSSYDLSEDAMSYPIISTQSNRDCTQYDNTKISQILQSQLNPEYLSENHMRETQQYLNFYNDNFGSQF
Method in brief: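 Yeast transcription factors, full-length or as DNA-binding domains, were expressed with a GST tag using PURExpress in vitro transcription/translation. At about 100-200 nM they were applied to universal all-10-mer Agilent arrays, double-stranded by primer extension on fresh or once-stripped slides. Fluorescent anti-GST detected bound protein, and masliner normalised the scans. E-scores for ungapped eight-base words, pooled with reverse complements, came from the Universal PBM Analysis Suite.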

Row | Sequence | PBM E-score
1 | AAACATGA | 0.181
2 | ACCGGTAG | -0.244
3 | CTTTGACA | 0.0516
4 | CACCAGCC | -0.205
5 | ACGGATAC | 0.249
6 | TATAGCGA | -0.151
7 | CTTCGCAA | 0.0365
8 | GGGCCATA | -0.0704
9 | CTTGGCCA | -0.209
10 | ACGTTTGA | 0.147
11 | GCCAGAAC | 0.0102
12 | CTTGGCAC | 0.0548
13 | ATATAGCC | 0.18
14 | CGGGTAGC | -0.0768
15 | AGCTCGAC | -0.0623
16 | CCCAGGCC | -0.257
17 | ATTACCTA | -0.0583
18 | AGTTATAG | -0.00421
19 | ATCTTCCA | -0.208
20 | GCCTGTAA | -0.203
21 | ATATCTAC | 0.171
22 | CGGTTGTC | -0.0804
23 | GCGACTAA | 0.103
24 | AGATAACC | -0.153
25 | ACTACCAA | -0.09

Row | Sequence | PBM E-score
26 | ACCGCGGA | -0.0118
27 | GCCCAGCA | -0.107
28 | CAGAGACG | 0.0862
29 | AGTGAGAG | -0.0794
30 | ACGGGGAC | -0.164
31 | GAAAGAAC | 0.0768
32 | CGTTGACA | 0.0374
33 | AGGAAGAA | -0.259
34 | AGCTTTAC | -0.0906
35 | AGACTAGG | -0.184
36 | AACCTCGT | -0.0808
37 | ATCTTAGG | 0.039
38 | ATCAGATA | -0.123
39 | CGGATAGA | 0.228
40 | CCCACAGA | -0.23
41 | GTGGTGGA | -0.0724
42 | CGATTAGA | 0.083
43 | GGTACCTA | -0.202
44 | AATCCGAC | -0.0643
45 | AGTGGGCG | 0.0679
46 | CGTACTAA | 0.169
47 | GAAAGATA | 0.0494
48 | GGTGGCCA | -0.273
49 | CGCTCCGA | -0.14
50 | ACAATGGA | 0.0567

Row | Sequence | PBM E-score
51 | ACGCTTCC | -0.165
52 | CTGTACTC | -0.144
53 | CGACTGAA | -0.144
54 | ACCCCCCA | -0.342
55 | GACTAAAC | -0.136
56 | TCTATACA | -0.0883
57 | CAAGCGTG | -0.0169
58 | CGACACAC | 0.131
59 | CGGAATGA | 0.0112
60 | AGACAGAG | -0.0784
61 | ATGCAGCC | 0.0762
62 | AAGCGAGG | -0.0815
63 | GATCGAGA | -0.0455
64 | CAAAACCG | 0.0867
65 | TACCACGA | -0.0388
66 | CGAAGCTC | -0.0828
67 | GGACTCGA | -0.122
68 | ATACGGTC | -0.0325
69 | ATTGGTTC | 0.0392
70 | ATTGCGCA | -0.0299
71 | GGTATAAA | 0.0804
72 | CCTTCATC | -0.169
73 | GAATGCTA | -0.0055
74 | GACCGCTA | -0.0445
75 | TAACATAA | 0.199

Row | Sequence | PBM E-score
76 | GCCATTCC | 0.0785
77 | ATTCTGTG | 0.128
78 | GGCTTCTA | 0.0649
79 | ACACCACC | -0.219
80 | AGGCGCAG | 0.188
81 | GATATATA | 0.314
82 | CGCTATGC | -0.0383
83 | TGCTCTAA | 0.0879
84 | ACTACTTC | -0.0239
85 | CAGTCTAC | -0.235
86 | CGGCAACC | 0.266
87 | AGGGAAAT | -0.0351
88 | GAGTGATA | 0.102
89 | AACGCCAA | 0.0964
90 | AGAAGGAG | -0.245
91 | CCCGCTCA | -0.0433
92 | ATGGCCGG | -0.157
93 | ACCCAATC | -0.0735
94 | AGAACCAA | -0.0285
95 | AGGATTGA | 0.0457
96 | CTGGGCGC | 0.025
97 | AGCAATCG | 0.0561
98 | CAATTGGG | -0.00084
99 | GACTGGCA | -0.0279
100 | ATCTTGTC | 0.136

Row | Sequence | PBM E-score
101 | CCTTCGCG | 0.0983
102 | CATTATGG | -0.177
103 | CGCATGGA | -0.0379
104 | CATTGTTA | 0.011
105 | CTCTCTGA | -0.237
106 | CTAACCGA | -0.0184
107 | ATGTGGCC | 0.0349
108 | AGTGTGGC | 0.068
109 | GGAACCCA | -0.122
110 | CATTCCAG | -0.0668
111 | AACGCCCG | 0.111
112 | CATGAAGC | -0.0775
113 | ACATTGCA | -0.0201
114 | ACGTTCTG | 0.0555
115 | CCCCGAGG | -0.247
116 | CGGTTAGA | -0.181
117 | GGGCCGAA | -0.0546
118 | CGATCTCA | -0.134
119 | AAACTTGT | 0.178
120 | ATCCGCAT | 0.236
121 | CTAGAACC | -0.0247
122 | GGCTCCAC | 0.0719
123 | GCGAGGAA | 0.00386
124 | GCTCGAAC | -0.0559
125 | ACACTTAC | 0.0666

Row | Sequence | PBM E-score
126 | AGTCAAGG | -0.242
127 | GACGTCCA | -0.123
128 | TATGTTGA | 0.0271
129 | CCAGGACA | -0.206
130 | GATGGTCC | -0.219
131 | ACGCAATA | 0.218
132 | GTCCAAAC | -0.105
133 | ACTCACAC | -0.063
134 | AACAGAGG | -0.112
135 | AAGCAACA | -0.0328
136 | CAGGGTGC | -0.251
137 | GATGAGAA | 0.0259
138 | CCGTCCGC | 0.124
139 | ATAAAGCG | 0.102
140 | AGTTCGCG | 0.0922
141 | CGTACGTC | -0.133
142 | GTACCATA | -0.129
143 | AGAGGTTG | -0.147
144 | AAATAGAC | -0.222
145 | GGGGAGGA | -0.375
146 | AAAACCGT | 0.114
147 | AATCGGAA | 0.153
148 | AGCTTCCT | -0.159
149 | CTTGTAAA | 0.0124
150 | GCAGGGAA | 0.0128

Row | Sequence | PBM E-score
151 | CTTCTACA | -0.0471
152 | CGCCAACA | -0.0204
153 | GAACCTTA | 0.0534
154 | AGGACCCG | -0.0845
155 | ATTTCGTG | 0.247
156 | AGTAATGG | -0.115
157 | ATGGTTGG | -0.12
158 | GGGATCTA | -0.2
159 | ATGCTGTA | -0.0563
160 | GAGTATCC | -0.185
161 | CATAGACC | -0.128
162 | GGGTTCAC | 0.0272
163 | ATTTGTAA | 0.109
164 | AATATATA | 0.252
165 | CAGCCCTA | 0.116
166 | CTAACAGC | 0.0206
167 | AACGCAGT | -0.0994
168 | ATAGCCGA | 0.0885
169 | TCGTCCCA | -0.243
170 | CTCAGTGA | -0.101
171 | AAGTGCTC | -0.236
172 | GCTGTAGA | -0.0322
